# In all, about 150,000 compounds went through this assay and about 540 (0.36%) showed an effect of 50% or more. The list shows a part of the results.
# Test system: Plasmodium falciparum
# Assay: Primary screen in NF54 nanoGlo assay, in single point, at 2uM, 72h; a lower Z score goes with more inhibition
# Assay type: functional, Erythrocyte
# Settings: timepoint 72 hour
SMILES,% Inhibition [%],Z score
Cc1csc(CN(C)C(=O)c2cc3ncccn3n2)n1,7,-1.49
O=C(O)[C@@H](c1ccc(OCC2CC2)cc1)N1CCC(Cn2ccnc2)CC1,-1,0.15
O=C(NC1c2ccccc2CCC1n1ccnc1)c1cscn1 (stereo unspecified),-14,1.16
O=S(=O)(c1ccc(F)cc1)n1nc(Nc2ccccc2Cl)cc1Nc1ccccc1Cl,-3,0.49
CC(C)CCC(=O)NCC(=O)NCc1ccnc(N2CCCCCC2)c1,-20,2.02
CN1C(=O)c2cc(NC(=O)c3ccccc3Cl)ccc2Oc2ncccc21,-18,1.94
CC1OCCC1S(=O)(=O)N1CCc2cc(Br)ccc21 (stereo unspecified),-12,2.23
C1CCC(c2nsc(NCc3nnn[nH]3)n2)C1,-1,0.22
O=C(NC1CCCC1)N1CC[C@H](Cc2noc(C3CC3)n2)C1,11,-1.38
O=C(CC1CC1)NCc1cnn2c1CCCC2,-1,0.09
CN(C)S(=O)(=O)NC1C(C)(C)C(NS(=O)(=O)N(C)C)C1(C)C (stereo unspecified),1,-0.13
CN(C)S(=O)(=O)c1csc(C(=O)NCc2cccnc2)c1,-21,1.94
CCOc1ccc(C(=O)N(CN2CCCC2=O)c2cc(C)on2)cc1,-1,0.23
COc1ccc(F)cc1CN1CCN(CC(=O)N2CCN(c3ccccc3)CC2)CC1,-13,1.24
Cc1ccc([C@H]2CN(C(=O)c3cc(-c4ccccc4)on3)C[C@@H]2N)o1,2,-0.45
Cc1ccc(C(=O)N2CC[C@H](N3CCN(C)CC3)[C@H](CCCO)C2)cc1O,-12,1.77
CC(C)(C)CCS(=O)(=O)NC(=O)Cc1ccccc1CC#N,-8,1.57
COC(=O)c1ccc(N2CCN(C3CCOC3=O)C(C)C2)cc1 (stereo unspecified),12,-2.31
C[C@H](C(=O)NCc1ccccc1)C1CCN(S(=O)(=O)c2ccc(Cl)s2)CC1,-2,0.24
Cc1nc(NCCCc2c(C)noc2C)cc(C2CCNCC2)n1,4,-0.35
O=C(NCc1ccccn1)c1cc(-c2ccc3c(c2)OCCO3)nc2ccccc12,10,-1.42
Cn1cc(-c2ccc(CN[C@H]3CCC(=O)NC34CCC4)cc2)cn1,-10,1.96

SMILES,% Inhibition [%],Z score
CS(=O)(=O)c1cccc(-c2nnc(C3(c4cccc(Cl)c4)CCOCC3)o2)c1,-10,1.59
CCC[C@H](NC(=O)CCCn1cccn1)c1nccn1C,1,-0.13
O=C1C2C3CCC(C3)C2C(=O)N1C1CCCCC1 (stereo unspecified),-4,0.47
CC(C)Oc1ccc(CNC(=O)CN2CCn3nc(-c4ccc(Cl)cc4)cc3C2=O)cc1,3,-0.35
Cc1c(C(=O)NCc2cccc(CO)n2)ccn1C(C)C,-3,0.52
CC1(C)CCCN(C(=O)[C@H]2CCCN(S(C)(=O)=O)C2)C1,9,-1.25
c1coc(-c2nnc(CN3CCN4CCCC[C@H]4C3)o2)c1,3,-0.5
C[C@@H](CN(C)Cc1ncnn1C)Oc1ccc(Cl)c(Cl)c1,1,-0.07
CC(C)[C@@](C)(C#N)NC(=O)COc1ccc(Br)cc1,-1,0.18
CS(=O)(=O)[C@H]1CCN(C(=O)C2(C3CCCCC3)CCCCC2)C1,-2,0.25
O=C(COc1cccc(F)c1)N1CCOC[C@@H](CO)C1,-17,2.18
O=C1CN(C(=O)NCC[C@H]2C[C@@H]2Cc2ccccc2)CCCN1,-23,2.43
O=C(O)c1cc(CN2CCc3[nH]cnc3[C@@H]2c2ccsc2)ccc1O,4,-0.52
O=C(OCCc1c[nH]nn1)C1CCCCC1,6,-0.84
COc1ncccc1N[C@@H](C)c1cc(C)sc1C,1,-0.17
C[C@@H](C(=O)NCc1nc(C(F)(F)F)n[nH]1)n1cccn1,2,-0.27
CCCCN1CCN([C@@H](C(=O)N2CCC(F)(F)CC2)c2ccccc2)C(=O)C1=O,-10,1.35
CC(C)(C)c1cc(Cn2cc([C@H]3CCCNC3)nn2)[nH]n1,-34,3.01
N#CC1(CS(=O)(=O)N2CCC[C@H](c3nnc[nH]3)C2)CCCC1,-4,0.72
Cc1n[nH]c(C)c1CC(=O)N[C@H]1CC[C@H](n2cnnc2)CC1,-6,0.96
CCOc1ncccc1C(=O)Nc1cc(C)nn1-c1cccc(Br)c1,-2,0.4
